# PubChem BioAssay AID1454 (National Center for Advancing Translational Sciences (NCATS), 2008)
# Screen size: about 130,000 compounds; about 550 (0.42%) were called active. Roughly 4% stayed inconclusive and do not appear here. Calls follow the shape of the dose curve; as a rule, active = well fitted inhibition curve with a large enough effect; inconclusive = small, poorly fitted or top-dose-only effect, or effect the other way; inactive = flat fitted curve, though single readings scatter. This is a selection; strong and weak results do not stand in their true shares.
# Assay: qHTS Assay for Inhibitors of the ERK Signaling Pathway using a Homogeneous Screening Assay; Stimulation with EGF; also: nearly all actives have a fitted effect of over 55% in size;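 as to activity change, negative = inhibition: plate controls were stimulated vehicle wells for no effect and unstimulated vehicle basal for full effect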
# Conditions: HEK293-V1b, EGF-stimulated phospho-ERK AlphaScreen; activity change, negative = inhibition: at the top concentration
# Source text: NIH Chemical Genomics Center [NCGC]
# NIH Molecular Libraries Screening Centers Network [MLSCN]
# Assay Submitter (PI): Dr. Wei Zheng, NCGC/NIH
# The Ras/extracellular-signal-regulated kinase (ERK) mitogen activated protein (MAP) kinase signaling pathway (ERK1/2 cascade) plays a key role in transmitting signals from the cell surface to the nucleus (Nishida and Gotoh 1993; Chang and Karin, 2001). The cascade is initiated by the small G-protein Ras, which recruits Raf from the cytosol, where activation occurs. Alternatively, this pathway can be activated by elevating intracellular cAMP, or by activation of a receptor tyrosine kinase as epidermal growth factor receptor.
# Activation of the ERK pathway is essential in increased cell division and cell survival. Sustained and constitutive activation of the ERK pathway, however, has been linked to uncontrolled cell proliferation, increased cell survival, and tumor progression. Thus, the ERK has been as an attractive target for cancer chemotherapy in the past few years (Sebolt-Leopold and Herrera, 2004). Given its physiological and pathological importance, assessment of ERK phosphorylation has been broadly performed in both basic research and drug discovery. Most assays for the measurement of ERK phosphorylation use the antibody-based detection methods, such as western blot and ELISA. These assays require multiple reagent additions with cell wash steps and are not suitable for high throughout screening.
# The current cell-based ERK phosphorylation assay was performed using AlphaScreen platform. AlphaScreen is a two bead-based proximity-dependent chemical energy transfer luminescent assay platform. The assay reagents (ERK SureFire(TM) kit) were supplied from TGR BioSciences (Australia). In the presence of specific antibodies, phosphorylated ERK will bring "donor" and "acceptor" beads to a proximity range (<200 nm), and subsequently lead a chemical luminescent reaction upon exciting donor beads with 680 nm laser. To exclude the assay-related false positives, we used a biotinylated rabbit IgG to perform counter-screen. The biotinylated antibody mimics the phosphorylated ERK1/2 for bringing streptavidin coated beads and protein-A coated beads to a proximity range for the AlphaScreen detection.
# NCGC Assay Protocol Summary:
# HEK293 cells stably expressing type-1 vasopressin receptor (V1b) were maintained in DMEM medium (Invitrogen, Carlsbad, CA) at 37C under a humidified atmosphere containing 5% CO2 and 95% air. The medium contained 10% FBS, 2 mM L-glutamine, non-essential amino acid, pyruvate and 50 U/ml penicillin and 50 ug/ml streptomycin (Invitrogen). The aliquots of frozen cells were stored at -135C and used for the compound screening. All compounds were screened as titrations from 0.6 nM to 46 uM final concentration. Epidermal growth factor (EGF) was used to stimulate the ERK phosphorylation pathway. The ERK phosphorylation in cells was determined using an AlphaScreen assay kit provided by […]. Data were normalized to the controls for basal activity (DMSO only) and 100% activation (25 nM EGF). AC50 values were determined from concentration-response data modeled with the standard Hill equation.
# (1) Seed 4 ul/well of resuspended frozen HEK293 cells containing 2000 cells in white 1536-well plates for overnight with 1% FBS at 37C under a humidified atmosphere containing 5% CO2 and 95% air.
# (2) Add 23 nL compounds in DMSO solution. The final titration was 0.6 nM to 46 uM.
# (3) Incubate at 37C for 30 min.
# (4) Dispense 0.5uL EGF (25 nM in final)
# (5) Incubate at 37C for 5 min.
# (6) Dispense 0.5uL of 1:2 diluted 5x lysis buffer.
# (7) Incubate at 37C for 10 min.
# (8) Dispense 1.5uL of mixture of activation buffer and reaction buffer with AlphaScreen beads (streptavidin donor beads and protein-A acceptor beads, 10 ng/well for each).
# (9) Incubate at room temperature for 5 hr.
# (10) Detect the assay plate in an EnVision plate reader (PerkinElmer) using the AlphaScreen detection mode.
# […]
# Potency is read from the fitted curve at half-maximal effect.
SMILES,"activity change, negative = inhibition",Potency
CC1(C(=O)O)C=CCN1C(=O)c1ccccc1 (stereo unspecified),inactive: -16.8%,–
O=C(NCC1CC1)[C@@H]1C[C@H]1[C@@H](NP(=O)(c1ccccc1)c1ccccc1)c1ccccc1,inactive: -0.404%,–
CCCCCCCCCCCCC/C=C/[C@@H](O)[C@@H](N)CO,inactive: -19.1%,–
CC1=C(C(=O)O)N2C(=O)[C@@H](NC(=O)C(N)c3ccccc3)[C@H]2SC1 (stereo partly specified),inactive: -5.86%,–
C[C@@H]1OC(OC2CC[C@@]3(C)C(CC[C@@]4(C)C3CC=C3C5CC(C)(C)CC[C@]5(C(=O)OC5OCC(O)[C@@H](O)[C@@H]5OC5O[C@@H](C)[C@H](O[C@H]6OC(CO)C(O)C(O)C6O)C(O)C5O)C(O)C[C@@]34C)C2(C)C)C(O)C(O)[C@H]1OC1OCC(O)C(O)[C@H]1O (stereo partly specified),–,active: 14.1 µM
CC1CCCN(C2=C(NS(=O)(=O)c3ccc(Cl)cc3)C(=O)c3ccccc3C2=O)C1 (stereo unspecified),–,active: 10 µM
CN1Cc2c(N)cccc2[C@H](c2ccccc2)C1,inactive: 2.75% [at 25.7 µM],–
COc1cccc2c1C(=O)c1c(O)c3c(c(O)c1C2=O)C[C@](O)(C(=O)CO)C[C@H]3O[C@@H]1C[C@H](N)[C@H](O)[C@H](C)O1,inactive: -1.62% [at 25.7 µM],–
Clc1ccccc1CN1CCN(/N=C/C=C/c2ccco2)CC1,inactive: -6.58% [at 57.5 µM],–
CN1Cc2c(N)cccc2C(c2ccccc2)C1 (stereo unspecified),–,inactive
CSc1ccc2c(c1)[C@H](N1CCN(C)CC1)Cc1ccccc1S2,–,inactive
CCc1ccc(N=c2c([N+](=O)[O-])nn(-c3ccc4c(c3)OCCO4)n2O)cc1,–,active: 28.2 µM
CC(C)c1ccc2c(c1)c(SC(C)(C)C)c(CC(C)(C)C(=O)O)n2Cc1ccc(Cl)cc1,inactive: 2.26%,–
CC(C)(C)c1cc(Br)c(O)c(N=Nc2ccc(S(=O)(=O)N3CCOCC3)cc2)c1,–,active: 25.1 µM
c1ccc(Nc2ncnc3ccc(-c4cccnc4)cc23)cc1,–,active: 2.51 µM
CC(C)(Sc1ccc(CCN(CCCCC2CCCCC2)C(=O)NC2CCCCC2)cc1)C(=O)O,inactive: -7.76%,–
CC(C)c1ccc2c(c1)CC[C@@H]1[C@@](C)(CN)CCC[C@]21C,inactive: 5.55%,–
OC(CCCN1CCCCC1)(c1ccccc1)c1ccccc1,inactive: -3.04% [at 25.7 µM],–
O=C1ON=C(c2ccccc2)/C1=C/c1ccco1,inactive: 3.45%,–
CC1C/C(=N/Nc2ccc([N+](=O)[O-])cc2[N+](=O)[O-])CC(C)(C)C1 (stereo unspecified),–,active: 12.6 µM
CN1CCC(=C2c3ccccc3CC(=O)c3sccc32)CC1,–,inactive
Oc1ccccc1Nc1nc(NCc2ccco2)c2ccccc2n1,–,active: 31.6 µM
COc1ccc(N=c2oc3cc(O)ccc3cc2C(=O)Nc2ccccn2)cc1OC,–,active: 28.2 µM

SMILES,"activity change, negative = inhibition",Potency
CN1CCc2cccc3c2[C@H]1Cc1ccc(O)c(O)c1-3,inactive: -5.13%,–
COC(=O)c1cccc(C23CC4(C2)[C@H](CN(Cc2cccnc2)[C@@H]4c2ccccc2)C3c2ccccc2)c1 (stereo partly specified),inactive: -3.86% [at 57.5 µM],–
O=C(NNc1nc2cc3c(cc2s1)OCO3)c1cccc(F)c1,–,active: 17.8 µM
Oc1cc2c(c(Cl)c1O)CCNC[C@H]2c1ccccc1,inactive: -16.3%,–
CCCCC/C=C\CC(O)/C=C/c1cccc(CC(O)CCCCO)n1 (stereo unspecified),–,inactive
COc1cc(/C=C2/SC(=S)N(CC(=O)Nc3cccnc3)C2=O)cc(OC)c1OC,inactive: 7.95%,–
O=C1NCN(c2ccccc2)C12CCN(CCCC(c1ccc(F)cc1)c1ccc(F)cc1)CC2,–,inactive
Nc1ncnc2c1ncn2[C@@H]1O[C@H](CO)[C@H](O)[C@H]1O,inactive: 16.3%,–
CCN(CC)C[C@@H]1CCCCN1CC(=O)N1c2ccccc2C(=O)Nc2cccnc21,inactive: -16.7%,–
N#CC(=C=[N-])c1nc2ccccc2nc1-[n+]1cccc(NC(=O)c2ccccc2)c1,inactive: 4.84% [at 57.5 µM],–
CCCCCCCC/C=C\CCCCCCCC(=O)NCCc1ccc(O)c(O)c1,inactive: -12.3%,–
COc1ccc(C2CC(=O)c3c(O)cc(O)cc3O2)cc1O (stereo unspecified),inactive: 24%,–
CCN1C(=O)/C(=C/C2=Cc3ccccc3OC2C)SC1=S (stereo unspecified),–,active: 15.8 µM
O=C1NN(c2ccccc2)C(=O)/C1=C/c1ccc(Sc2ccc(Cl)cc2)o1,–,active: 28.2 µM
Cc1cccc(CN2CCN(C(c3ccccc3)c3ccc(Cl)cc3)CC2)c1 (stereo unspecified),inactive: 13.6%,–
CC(=O)OC1c2c(ccc3ccc(=O)oc23)OC(C)(C)C1OC(=O)CC(C)C (stereo unspecified),inactive: 17.1%,–
COc1ccccc1NS(=O)(=O)c1ccc(N/N=C/c2c(C)nn(-c3ccccc3)c2N2CCCC2)c([N+](=O)[O-])c1,–,active: 12.6 µM
O=C1CCc2cc(OCCCCc3nnnn3C3CCCCC3)ccc2N1,–,inactive
C=CS(=O)(=O)c1ccc(Oc2ccc(S(=O)(=O)C=C)cc2)cc1,–,active: 12.6 µM
O=C(/C=C\c1ccc(-c2cccc([N+](=O)[O-])c2)o1)N1CCOCC1,inactive: 1.97%,–
C=C1C(=O)C=C2CN(C(=O)c3ccccc3)[C@@](Cc3ccc(F)cc3)(C(=O)OC)[C@@H]12,–,active: 22.4 µM
O=C(Nc1cccnc1)c1ccc(Cl)c(S(=O)(=O)N2CCc3ccccc32)c1,–,active: 25.1 µM
O=C1N(c2ccccc2)c2ccccc2C1(Cc1ccncc1)Cc1ccncc1,–,inactive
